# The list shows a part of the results.
# System: HSkMC (human skeletal muscle cells)
# Assay: cytotoxicity call (relative viability < 0.9)
# Conditions: 10 µM
row,Structure (SMILES),cytotoxicity call
1,Cc1cccc(OC[C@@H](O)CN)c1,inactive
2,CC(C)NC(=O)N(C)C[C@@H]1Oc2c(NC(=O)C3CCCCC3)cccc2C(=O)N([C@@H](C)CO)C[C@@H]1C,inactive
3,O=C(C[C@@H]1C[C@@H]2c3cc(NC(=O)C4CCOCC4)ccc3O[C@@H]2[C@@H](CO)O1)NCCN1CCCCC1,inactive
4,COc1cccc(-c2cn(CC[C@H]3CC[C@@H](NC(=O)CN(C)C)[C@@H](CO)O3)nn2)c1,inactive
5,COc1ccc(NC(=O)N(C)C[C@H]2Oc3ccc(NC(=O)Nc4cccc5ccccc45)cc3CC(=O)N([C@H](C)CO)C[C@H]2C)cc1,inactive
6,C[C@H](CO)N1C[C@H](C)[C@@H](CN(C)C(=O)Nc2ccc3c(c2)OCO3)OCCCC[C@H](C)Oc2ccc(NC(=O)Nc3cccc4ccccc34)cc2C1=O,inactive
7,CC(C)NC(=O)N[C@@H]1C=C[C@@H](CC(=O)NCCCN(C)C)O[C@@H]1CO,inactive
8,O=C(C[C@@H]1C[C@@H]2c3cc(NC(=O)Cc4ccncc4)ccc3O[C@@H]2[C@H](CO)O1)NCCc1ccccc1,inactive
9,C[C@H]1CC=CC[C@H](c2ccc3c(c2)OCO3)NC(=O)[C@H](Cc2ccccc2)N(C)C(=O)c2ccccc2O1,inactive
10,Cc1ccc(S(=O)(=O)Nc2ccc3c(c2)C(=O)N([C@@H](C)CO)C[C@H](C)[C@@H](CN(C)Cc2ccccc2)OCCCC[C@@H](C)O3)cc1,inactive
11,C[C@@H]1CN([C@@H](C)CO)S(=O)(=O)c2ccc(Br)cc2O[C@H]1CN(C)C(=O)Cc1cccnc1,inactive
12,C[C@@H]1CN([C@@H](C)CO)S(=O)(=O)c2ccc(C#Cc3cccnc3)cc2O[C@H]1CN(C)C(=O)Nc1ccc2c(c1)OCO2,inactive
